In paper PMC6819661:
These are yes or no findings as the source states them, for the method shown. For some assays here: Binding seen in cells or lysates may run through a third protein. Some results given as binding are weak or reduced against the parent protein; the word gives no strength.

What was measured:
[1] = target: HA-NS2A (ZIKV NS2A with an N-terminal HA tag, expressed from HA-NS2A ZIKV) (Zika virus (Cambodian strain FSS13025)); test: Western blot of whole-cell lysate; Whole-cell lysates of HA-NS2A ZIKV-infected Vero cells blotted with rabbit HA antibody; bands of monomer, dimer and higher oligomers
[2] = target: ZIKV NS2B protein (from virus-infected or viral RNA-transfected cells) (Zika virus (Cambodian strain FSS13025)); test: co-IP
[3] = target: ZIKV prM protein (from virus-infected or viral RNA-transfected cells) (Zika virus (Cambodian strain FSS13025)); test: co-IP
[4] = target: NS2B-Flag expressed from plasmid pXJ-NS2B-Flag (Zika virus); test: co-IP; HEK293T cells cotransfected with pXJ-HA-NS2A and a plasmid for Flag-tagged prM, E, NS2B or NS3; 24 h p.t.; lysates precipitated with HA or Flag antibody (the target of a row is the precipitated protein); Western blot
[5] = target: prM-Flag expressed from plasmid pXJ-prM-Flag (Zika virus); test: as above
[6] = target: NS3-Flag expressed from plasmid pXJ-NS3-Flag (Zika virus); test: as above
[7] = target: HA-NS2A expressed from plasmid pXJ-HA-NS2A (Zika virus); test: as above
[8] = target: HA-NS2A (ZIKV NS2A with an N-terminal HA tag, expressed from HA-NS2A ZIKV) (Zika virus (Cambodian strain FSS13025)); test: co-IP
[9] = target: HA-NS2A (ZIKV NS2A with an N-terminal HA tag, expressed from HA-NS2A ZIKV) (Zika virus (Cambodian strain FSS13025)); test: co-IP; Vero cells infected with HA-NS2A ZIKV at MOI 0.01, harvested at 72 h; lysate incubated with HA antibody in the presence or absence of RNase A (60 μg/ml) at 4°C overnight; Western blot

Substance	binding [2]	binding [3]	binding [8]	binding [9]	other results
HA-NS2A (ZIKV NS2A with an N-terminal HA tag, expressed from HA-NS2A ZIKV) (from UniProt A0A142I5B9 1147-1372)	binds	binds	–	–	binding [1]: binds
HA-NS2A expressed from plasmid pXJ-HA-NS2A (from UniProt A0A142I5B9 1147-1372)	–	–	–	–	binding [4]: binds; binding [5]: binds; binding [6]: binds
NS2B-Flag expressed from plasmid pXJ-NS2B-Flag (from UniProt A0A142I5B9)	–	–	–	–	binding [7]: binds
NS3-Flag expressed from plasmid pXJ-NS3-Flag (from UniProt A0A142I5B9 1503-2119)	–	–	–	–	binding [7]: binds
ZIKV NS1 protein (from virus-infected cells) (from UniProt A0A142I5B9 795-1146)	–	–	no binding	–	–
ZIKV NS2B protein (from virus-infected or viral RNA-transfected cells) (from UniProt A0A142I5B9)	–	no binding	binds	binds	–
ZIKV NS3 protein (from virus-infected or viral RNA-transfected cells) (from UniProt A0A142I5B9 1503-2119)	binds	no binding	binds	binds	–
ZIKV NS4B protein (from virus-infected cells) (from UniProt A0A142I5B9 2270-2520)	–	–	no binding	–	–
ZIKV capsid (C) protein (from virus-infected cells) (from UniProt A0A142I5B9)	–	–	no binding	–	–
ZIKV envelope (E) protein (from virus-infected or viral RNA-transfected cells) (from UniProt A0A142I5B9)	no binding	binds	binds	binds	–
ZIKV prM protein (from virus-infected or viral RNA-transfected cells) (from UniProt A0A142I5B9)	no binding	–	binds	binds	–
prM-Flag expressed from plasmid pXJ-prM-Flag (from UniProt A0A142I5B9)	–	–	–	–	binding [7]: binds
